Here are results for 20 variants from the RNAGym collection of RNA variant scans (doi:10.7554/elife.90254).

The source gives no read counts; variants with many changes may rest on few reads.

B1: LINE1-full (parent)
chain: UACGUAGGUGGUUUUCCCCUGAUAGUGCUAAGGGGGCCUGGAAGUUUGGACUGGGCAGAGCUCAACACAGCGUGGCAAAGUGGCUGUGGCUAGACUGCCUCUCUGGAUUCCUCGUCACUCAGCAGGGCAUCUCUGAGAGAAAUGCC

This data set covers variants of B1. In words: self-cleavage, relative activity (ratio to wild type); higher = more cleavage; in vitro, sequencing; the parent is a self-cleaving ribozyme.
Regarding UACGUAGGUGGUUUACCCCUGAUAGUGCUAAGGGGGCCUGGAAGUUUGGACUGGGCAGAGCUCAACACAGCGGGGCAAAGUGGCUGUGGCUAGACUGCCUCUCUGGAUUCCUCGUCACUCAGCAGGGCAUCUCUGAGAGAAACGCC [U15A U73G U143C], the self-cleavage was determined as 0.91.
As for UACGUAGGUGGUUUCCCCCUGGUAGUGCUAAGGGGGCCUGGAAGUUUGGACUGGGCAGAGCUCAACACAGCGUGGCAAGGUGGCUGUGGCUAGACUGCCUCUCUGGUCACAUCGUCACUCAGCAGGGCAUCUCUGAGAGAAAUGCC [U15C A22G A79G A107U U108C U109A C111A], the figure is 1.84; as for UACGUAGGUGGUUUACCCCUGAUAGUGCUAAGGGGGCCUGGAAGUUUGGACCGGGCAGAGCUCAACACAGCGUGGCAAAGUGGCUGUGGCUAGACUGCCUCUCUGGAUUCCUCGUCACUCAGCAGGGCAUCUCUGAGAGAAAUGCU [U15A U52C C146U], 1.74.
As for UACGUAGGUGGUUUCCCCCUGGUAGUGCUAAGGGGGCCUGGAAGUUUGGACUGGGCAGAGCUCAACACAGCGUGGCAAAGUGGCUGUGGCUAGACAGCCUCUCCGGAUUCCUCGUCACUCAGCAGGGCAUCUCUGAGAGAUAUGCC [U15C A22G U96A U104C A141U], the figure is 0.23.
As for UACGUAGGUGGUUUACCCCUGAUAGUGCUAAGGGGGCCUGGAAGUUUGGACUGGGCAGAGCCCAACACAGCGUGGCAAAGCGGCUGUGGCUAGACUGCCUCUCUGGAUUCCUCGUCACUCAGCAGGGCAUCUCUGAGAGAAAUGCC [U15A U62C U81C], the figure is 0; as for UACGUAGGUGGUUUCCCCCUGGUAGUGCUAAGGGGGCCUGGAAGUUUGGACUGGGCAGAGCUCAACACAGCGUGGCAAAGUGGCUGUGGCUAGACUGCCUCUCUGGAUUCCCCGUCACUCAGCAGGGCAUCUCUGAGAGAAAUGCC [U15C A22G U112C], 1.02.
With UACGUAGGUGGUUUACCCCUGAUAGUGCUAAGGGGGCCUGGAAGUUUGGACUGGGCAGAGCUCAACACAGCGUGGCAAAGUGGCUGAGGCUAGACUGCCUCUCAGGAUUCCUCGUCACUCAGCAGGGCAUCCCUGAGAGAAAUGCC [U15A U87A U104A U132C], the self-cleavage is 0.11.
As for UACGUAGGUGGUUUACCCCUGAUAGUGCUAAGGGGGCCUGGAAGUUUGGACUGGGCAGAGCACUACACAGCGUGGCAAAGUGGCCGUGGCUAGACUGCCUCUCUGGAUUCCUCGUCACUCAGCAGGGCAUCUCUGAGAGAAAUGCC [U15A U62A A64U U85C], the figure is 0.17; as for UACGUAGGUGGUUUACCCCUGAUAGUGCUAAGGGGGCCUGGAAGUUUGGACUGGGCAGAGCCCAACACAGCGUGGCAAAGUGGCUGUGGCUAGACUGCCUCUCUGGAUUCCUCGUCACUCCGCAGGGCAUCUCUGAGAGAAAUGCC [U15A U62C A121C], 0.
On to UACGUAGGUGGUUUACCCCUGAUAGUGCUAAGGGGGCCUGGAAGUUUGGACCGGGCAGAGCUCAACACAGCGUGGCAAAGUGGCUGUGGCUAGACUGCCUCUCUGGAUUCCUCGUCAUUCAGCAGGGCAUCUCUGAGAGAAAUGCC [U15A U52C C118U], for which the self-cleavage is 0.78.
As for UACGUAGGUGGUUUACCCCUGAUAGUGCUAAGGGGGCCUGGAAGUUUGGACUGGGCAGAGCUCAACACAGCGUGGCAAAGUGGCCGUGGCUAGACUGCCUCUCUGGAUUCCUCGUCACUCAGCAGGGCAUCUCUGAGAGAGAUGCC [U15A U85C A141G], the figure is 0.
Next, UACGUAGGUGGUUUACCCCUGAUAGUGCUAAGGGGGCCUGGAAGUUUGGACUGGGCAGAGCUCAACACAGCGUGGCAAAGUGGCUGUGGCUAGACCGCCUCUCUGGACUCCUCGUCACUCAGCAGGGCAUCUCUGAGAGAAAUGCC [U15A U96C U108C]: 0.31; UACGUAGGUGGUUUCCCCCUGGUAGUGCUAAGGGGGCCUGGAAGUUUGGACAGGGCAGAGCCCAACACAGCGUGGCAAAGUGGCUGUGGCUAGACUGCCUCUCUGGAUACCUCGUCGCUCAGCAGGGCAUCUCUGAGAGAAAUGCC [U15C A22G U52A U62C U109A A117G]: 0.33; UACGUAGGUGGUUUCCCCCUGGUAGUGCUAAGGGGGCCUGGAAGUUUGGACUGGGCAGAGCCCAACACAGCGUGGCAAAGUGGCUGUGGCUAGACUGCCUCUCUGGAUUCCUCGUCACUCAGCAGGGCAUCUCUGAGAGAAAUGCC [U15C A22G U62C]: 0.34.
Take UACGUAGGUGGUUUACCCCUGAUAGUGCUAAGGGGGCCUGGAAGUUUGGACUGGGCAGAGCACAACACAGCGUGGCAAAGUGGCUGUGGCUAGACUGCCUCUCUGGAUUCCUCGUCACUCGGCAGGGCAUCUCUGAGAGAAAUGCC [U15A U62A A121G]: the self-cleavage came to 0.24.
As for UACGUAGGUGGUUUACCCCUGAUAGUGCUAAGGGGGCCUGGAAGUUUGGACUGGGCAGAGCUCAACACAGCGUGGCAAAGUGGCUGUGGCUAGACUGCCUCUCUGGAAUCAUCGUCACUCAGCAGGGCAUCUCUGAGAGAAAUGCC [U15A U108A C111A], the figure is 1.58.
Consider UACGUAGGUGGUUUACCCCUGAUAGUGCUAAGGGGGCCUGGAAGUUUGGACUGGGCAGAGCUCAACACAGCGUGGCAAAGUGGCUGUGGCUAGACUGCCUCUCUGGAUUCCUCGCCACUCAGCAGGGCAUCUCUGAGAGAGAUGCC [U15A U115C A141G], for which the self-cleavage stood at 1.13.
As for UACGUAGGUGGUUUACCCCUGAUAGUGCUAAGGGGGCCUGGAAGUUUGGACUGGGCAGAGCUCAACACAGCGCGGCAAAGUGGCUGUGGCAAGACUGCCUCUCUGGAUUCCUCGCCACUCAGCAGGGCAUCUCUGAGAGAAAUGCC [U15A U73C U91A U115C], the figure is 0; as for UACGUAGGUGGUUUACCCCUGAUAGUGCUAAGGGGGCCUGGAAGUUUGGACUGGGCAGAGCCCAACACAGCGUGGCAAAGUGGCUGUGGCUAGACUGCCUCCCUGGAUUCCUCGUCACUCAGCAGGGCAUCUCUGGGAGAAAUGCC [U15A U62C U102C A136G], 0.
Take UACGUAGGUGGUUUACCCCUGAUAGUGCUAAGGGGGCCUGGAAGUUUGGACUGGGCAGAGCUCAACACAGCGUGGCAAAGUGGCUGUGGCUAGACUGCCCCUCUGAAUUCCUCGUCACUCAGCGGGGCACCUCUGAGAGAAAUGCC [U15A U100C G106A A124G U130C]: the self-cleavage came out at 1.58.
